In PubChem BioAssay AID1345083 (National Center for Advancing Translational Sciences (NCATS), 2018):
About 6,200 (6.6%) of roughly 94,000 compounds were called active. Inconclusive means that the source gave no clear call. Such entries were picked first, then a sample of the others. The call rests on the fitted dose curve; in most records, active means well fitted inhibition curve with a large enough effect; inconclusive means small, poorly fitted or top-dose-only effect; inactive means flat fitted curve, though single readings scatter. A potency beside an inconclusive call is a rough fit, not a confirmed value.

assay: Cytotoxic Profiling in HEK 293 Cell Line of Diverse Libraries Using Quantitative High-Throughput Screening; conditions: HEK 293 viability, ATP luminescence (CellTiter-Glo), 48-72 h; activity change, negative = cytotoxicity: at 115 µM (top of the series) unless noted; series mostly up to 115 µM; further: nearly all actives have a fitted effect of over 60% in size
In short: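 HEK 293 cells at 250 cells/well were exposed to compounds by pintool transfer for 48 or 72 hr at 37 degree Celsius, 5% CO2. Viability was read as ATP-coupled luminescence with CellTiter-Glo after 10 min at room temperature.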
On the % scale 0 is the no-effect control and ±100 the full control effect; potency means the concentration at half of the fitted maximal effect; tags describe the fitted curve by direction and shape.

Row | Structure (SMILES) | Potency | activity change, negative = cytotoxicity | outcome
1 | COc1ccc(-c2cc3c(ccn3C)c(C(=O)NCc3cccnc3)n2)cc1OC | inconclusive: 100 µM [inhibitor, partial curve] |  | 
2 | CCn1cc(S(=O)(=O)N2CCCC2Cc2noc(-c3ccccc3)n2)cn1 (centres undefined) | active: 44.7 µM |  | 
3 | CCCCOC(=O)N1C[C@@H](CO)[C@@H]2Oc3c(C)cccc3[C@@H]21 | inconclusive: 100 µM [inhibitor, partial curve, poor fit] |  | 
4 | CNC(=O)c1cc(C)nc2onc(C3CCCN(C(=O)c4ccc(F)cc4)C3)c12 (centres undefined) |  | inactive: -5.07% | 
5 | CN(Cc1cccnc1)C1CCCc2ccccc21 (centres undefined) | active: 56.2 µM |  | 
6 | CN(Cc1ccc(-c2ccccc2)cc1)Cc1cccc2ccccc12 | inconclusive: 89.1 µM [inhibitor, single point] |  | 
7 | COc1ccc(Cc2nc3nccc(-c4ccc(OC)cc4F)n3n2)cc1 | inconclusive: 89.1 µM [inhibitor, single point] |  | 
8 | CCCn1ncc(N2CCC(C(=O)N3CCN(CC(=O)NCc4ccccc4)CC3)CC2)cc1=O | inconclusive: 79.4 µM [inhibitor, partial curve, poor fit] |  | 
9 | COc1ccc(-c2cc(N3CCN(C(=O)Cc4cccc(OC)c4)CC3)n[nH]2)cc1 | inconclusive: 50.1 µM [inhibitor, partial curve, poor fit] |  | 
10 | O=C(NCc1ccccc1Cl)c1cc(-c2ccc(Cl)cc2Cl)c2nncn2n1 | inconclusive: 50.1 µM [inhibitor, partial curve, poor fit] |  | 
11 | CN(C)c1cccc(NC(=O)c2ccnc(-c3nnc4ccc(N5CCOCC5)nn34)c2)c1 |  | inactive: -28.4% | 
12 | COc1ccc(CCC(=O)NCC(=O)N2CCCCCCNC(=O)CC2c2ccccc2)cc1 (centres undefined) |  | inactive: -2.36% | 
13 | CC(C)(C)OC(=O)NC(C)(CN)c1ccccn1 (centres undefined) |  |  | inactive [at 172 µM]
14 | C=CCOc1cccc(C(=O)N2CCC(Cc3ccc(OC)cc3)(C(=O)OCC)CC2)c1 | inconclusive: 22.4 µM [inhibitor, full curve] |  | 
15 | COc1ccccc1-c1cccc(CN2CCC(N[S+](=O)([O-])CCC(F)(F)F)CC2)c1 | inconclusive: 79.4 µM [inhibitor, partial curve, poor fit] |  | 
16 | Cc1ccn2c(C(=O)N3CCCC(c4[nH]ncc4-c4ccccc4)C3)nnc2n1 (centres undefined) | inconclusive: 100 µM [inhibitor, single point] |  | 
17 | CCCC1CN(C(=O)OC(C)(C)C)CCN1 (centres undefined) |  |  | inactive [at 230 µM]
18 | COC1CN(c2cccc(F)c2)C12CCN(S(=O)(=O)c1cccs1)CC2 (centres undefined) | active: 17.8 µM |  | 
19 | COCCCNC(=O)c1cccc2c1CCN2C(=O)Nc1cccc(C)c1 | inconclusive: 44.7 µM [inhibitor, partial curve, poor fit] |  | 
